# Data reported in the supplement of paper PMC11417369.
# The list shows a part of the results.
# Test system: PfSIP2 AP2 domain 1 (GST-tagged)
# Experiment: gcPBM binding intensity (ln(normalized median fluorescence intensity)); higher = stronger DNA binding
# How it was run: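 Binding intensity is defined as the maximum Masliner-normalised natural-log median intensity across replicate spots for either probe orientation. It was measured on an Agilent 4 × 180k array of primer-extended double-stranded 36-bp intergenic genomic probes and negative controls, to which GST-tagged P. falciparum DNA-binding domains made in E. coli were applied for 1 h in 1× PBS with 1% milk, 0.2 mg/ml BSA, 0.5% salmon testes DNA and 0.03% Triton X-100. Detection was by Alexa488 anti-GST antibody and scanning at 488 nm.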
row,Sequence,gcPBM binding intensity (ln)
1,TATAAAAATGTTTACACACACACATAAATATATTTT [CACACA_site2512],7.1
2,TTTTTTTTTTTTCTGAGTACGAAAAATAGAGATAGA [XGTACX_site3825],7.48
3,TGTATAAATATAATCACACATATATATATATATATA [CACACA_site4365],9.45
4,AAGTTACAAAATCAAAAGGAAAAAATATAAAATAAT [CACACA_negctrl_site561],6.84
5,CAAGAAAATTGACACACACACATATTTATATTTATA [CACACA_site7766],6.95
6,AAATTAAATGTAAGCACACATAAATTATACTCATAT [CACACA_site5782],6.82
7,ACTTATACAAAATGTGCATGTTATATTTACAATAAT [TGCATGCA_site108],7.85
8,GGAATAGTAATATATACACACAAATACATATATATA [CACACA_site67],7.65
9,TTTATTTTTTAATGATGTACTATTTATCCAGAAAAG [XGTACX_site7750],7.42
10,ATAAGCTCATGCAGGTGTACACAAAAAGAAAAAAAA [XGTACX_site2433],7.55
11,ATAATGAAAAGGAACATACACACCCCATATAAATAT [CACACA_site3442],7.16
12,TCTGTATATTATTCAAGTACACAATATAAATATAAA [XGTACX_site7241],7.22
13,AAAAAATTCAAAAGGTGTACAACATTATATTATTCC [XGTACX_site5118],6.94
14,TATTGTTTTTTTTACTGTACACAAGTAAATGAAAAA [XGTACX_site790],7.47
15,GTATATAATTAAAGTTGTACCCTTAAAAAAGGGAAA [XGTACX_site7278],6.97
16,GATAACTTTTTTCTCACACACAAATATTTTAATCAT [CACACA_site7685],7.38
17,GAACAAATTAAATAGGTGCATTAACATGTTCTATTT [GTGCAC_site9729],10.4
18,AAAAATAAAAAAATAAATACGTATACATATATAATA [TGCATGCA_negctrl_site551],6.81
19,TATAATTATATGTATACACACACATACATTTACATA [CACACA_site9061],7.27
20,AAAATGAAAATGAAAATGAAAATGGGAAAATGTCAA [TGCATGCA_negctrl_site488],6.98
21,TTATATATAAGTTTATTCATTTTTTTTTTTTTTTTT [XGTACX_negctrl_site573],7.62
22,TAAATAAAAAAGAATACACACAGCATGCATAAATAT [CACACA_site237],7.11

row,Sequence,gcPBM binding intensity (ln)
1,CATATATATCGTAATGCACACATGTAATTTCATAAT [CACACA_site811],7.35
2,TAACACCAAACTAAATGTACACACATACATAAATAT [XGTACX_site2201],7.33
3,TAAATGTGAACAATAGAAGTAATAAGAAGAATAAAA [CACACA_negctrl_site1080],6.97
4,TTTATTTTTTGTGGCACACAGAAGAAACAAGAACAA [CACACA_site1696],7.78
5,AATGAATAATTATTTTGTACATAATATTATATTTAT [XGTACX_site5350],6.94
6,AATAGTAATTTGAATACACACAATAATATATTTATA [CACACA_site7055],6.97
7,ATATATATTATATAAGTGCATAATATTCTTTCTTTT,8.17
8,TTTTTCATTTCTGCATTTATTTATAAATAAATATTT [CACACA_negctrl_site368],7.38
9,TTTTTTTATCAATGTTGTACTTTTTTTTTTTTCCAT [XGTACX_site8864],6.79
10,TATATATTTTGTGTCTGTACACATATTATTAATTCC [XGTACX_site7507],7.31
11,TTCAAATATAAATACACACACATAGCTACAAAATAA [CACACA_site4172],7
12,TATAAGAGAATATATACACACAAAAATATATACAGT [CACACA_site1668],7.34
13,TACACGCATGGACACACACACACACCCATATATATA [CACACA_site4522],7.36
14,ATATTAACTATCATAACACACACAGTAGACATATTT [CACACA_site6941],6.99
15,TAAATACATAAATACACACACATATATTATATATAT [CACACA_site4310],7.51
16,TATCATATATAAAGAGGTACGTAAGAATAGAAAATT [XGTACX_site798],7.31
17,TTCTTAAAAGGAAAGGTGCAACTTTATCATTTTCTT,10.9
18,TATGAAATTTTAATTACACACAGGAAAATAAAATGG [CACACA_site4935],7.19
19,TAAAAAAAATATTTTTGTACGAATTAAATTTTTTTT [XGTACX_site4838],6.71
20,ACATATTTTTAATACACACTCAAAAAAGTACTTAAC [CACACA_site3014],7.21
21,AAAAAAAGTAAATGTTGTACTATAATATGTAATATA [XGTACX_site7966],6.85
22,AACCACATACATATAACACACATATACAATCTATAT [CACACA_site1987],7.44

row,Sequence,gcPBM binding intensity (ln)
1,TACATATATATTATATGTACTTATATTTTTATAATA [XGTACX_site3452],7.02
2,ATATACATATCCATATTTATATCTATATTTAAAACA [CACACA_negctrl_site747],6.81
3,AAATAACACTAATGATGTACTCAACTATTTATAATT [XGTACX_site8183],6.89
4,TATATGATATAATATACACACATACAGATATATATA [CACACA_site4440],7.17
5,AAATTATTAAGTGATATAATATTCTATAGATGGGGA [CACACA_negctrl_site168],7.09
6,TTTTCCAATTTAAAAGCATGCATCTGTTTTTTTTTT [TGCATGCA_site482],6.76
7,TAGAGGTATAAAATATGTACTTATAAAAACATGAAT [XGTACX_site8916],6.98
8,AGAGGTAGAGAGAAAACATGCATAATGATTTTCATA [TGCATGCA_site958],6.82
9,TATTTACACCTAATCACAAATAAAATAAAATCAAAT [CACACA_negctrl_site531],7.1
10,TTTTTATAACTATATTATATAACTTTTGTACGAACT [CACACA_negctrl_site1423],6.85
11,ACATATAAATAAATAAATATATATATATATATATAT [GTGCAC_negctrl_site378],9.66
12,TAAATCAAAATAATTTAACACACAATTTTAATACTG [CACACA_site8744],6.67
13,GATAAGGTATTCAAATGTACAAAATGTTTTATATAA [XGTACX_site6863],6.93
14,CTTGTATTTAAACACACACACACTTTCTTTTTTTAA [CACACA_site5133],6.96
15,TTAATATTAATATATTGTACATATATGCACATATTT [XGTACX_site6569],7.59
16,AATATTATAATATAAACACACAAAATTCAATTATAT [CACACA_site3789],6.86
17,AACGTTCATATTTCCACACACAAAAAATAAATATAA [CACACA_site3344],7.31
18,AAAAATAAAGGGCGAAAAAAAAAAAAAAAAAAAAAA [GTGCAC_negctrl_site671],6.92
19,ATATTTTATTATTGTTGTACTTTTTTTTGATTGTTT [XGTACX_site4090],6.95
20,TTGACACGTATATGCACACACCCGTAAGTGTCCATT [CACACA_site2764],7.14
21,TTTTTTATGAACACGTCACACATCATTAAAATGTTT [CACACA_site5934],6.84
22,AGTTATAAACATATGTGTACTTATAAAAACATATAG [XGTACX_site3268],7.12

row,Sequence,gcPBM binding intensity (ln)
1,TTTAATATTTTTCAATGTAGAAAGTTTGTCTGTTAT [CACACA_negctrl_site973],6.73
2,TCACACATATATTCATGTACATATTAATATTTCCAT [XGTACX_site5387],7.22
3,TTTTGTAAAAAAAAAAAAAAAGGAAAATTAAAATAA [CACACA_negctrl_site803],6.55
4,TTGATGATATAAAAAAGTACTTATATTATATTATAT [XGTACX_site6492],7.1
5,TTTCCTATTTAATATAGTACATAAGAAATAATTTTA [XGTACX_site5952],6.95
6,TTGTTTTTAGTTTATACACACCATATTAATATAATG [CACACA_site7452],7.31
7,ATTTGGCATGGACACACACACACACCGACAGACATA [CACACA_site4491],7.16
8,TTATATTATGGACACACACACAAAAAAAAAAAAAAA [CACACA_site7744],7.14
9,AAATTAATTAAATATACACACATATATAAATATATA [CACACA_site391],6.85
10,ATATATATATAAAGTTGTACATTTTTTATTTTTTCA [XGTACX_site7847],9.04
11,TTAAAACCAAAACACAGTACATATATATATATATAT [XGTACX_site5668],9.66
12,CAATTTTAAGTAATCAATTTTTTTAAAAAACACAAA [CACACA_negctrl_site961],7.03
13,AAAATATATTATATATGTACATATTACGTTTTAATT [XGTACX_site2518],7.04
14,TATATATATATGTATACACACATATGTATGTTATGT [CACACA_site4053],9
15,GCATAATATACTCTTACACACCATTTCTATATACAT [CACACA_site6799],7.22
16,TTTGTTAATTATAAATGTACATATTATATATATATA [XGTACX_site8870],9.08
17,ATGTTGTCAAAAAAATGTACTTACATAATATTTTCC [XGTACX_site1732],7
18,TATAAATACTTATATGTACACACATATAGATATATA [CACACA_site8819],7
19,CGCATACACCAACACACACACACATATATATATATA [CACACA_site635],9.74
20,AGAAGTCTGTAATGATGTACTGGAAAAATATAAATA [XGTACX_site8148],6.96
21,TAGATCTTATTTACAAGTACATATATACGATTCATT [XGTACX_site7578],6.97
22,ATCTAATATATATTCTGTACGTAATTAAAACCACAA [XGTACX_site3152],7.54
